# Assay results reported in the RNAGym collection of RNA variant scans (doi:10.1093/nar/gkz1192).
# The source gives no read counts; variants with many changes may rest on few reads.
# B1: CPEB3 Ribozyme (parent)
# chain: UAACAGGGGGCCACAGCAGAAGCGUUCACGUCGCAGCCCCUGUCAGAUUCUGGUGAAUCUGCGAAUUCUGCUGUAUAUCUC
# Variants of: B1
# Assay: self-cleavage, relative activity (ratio to wild type); higher = more cleavage; in vitro, sequencing
# In short: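 Relative activity compares each variant's cleaved/total read fraction with that of the unmutated ribozyme. To get these fractions, barcoded CPEB3 ribozyme libraries from rounds of error-prone PCR were transcribed with T7 RNA polymerase for 5 hours at 37°C and then given 15 min of DNase I treatment before EDTA was added. The RNAs were reverse transcribed with template switching and sequenced on Illumina, and DNA sequencing linked barcodes to variants. A minimum of 5 reads applied, and three batches were averaged.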
row,Variant,self-cleavage
1,C37U G42C U51A U66C C79A,0.12
2,C37U U41A G73U,0.07
3,C37U U41A U43A A47U A56G U67G,0.03
4,C37U U41C A47G,0.84
5,C37U U41G U49C U60C U80C,0.15
6,C37U U43A U51A A64G,0.33
7,C37U U43A U74C,1.07
8,C37U U43C A47U A56G U78C,0.1
9,C37U U48C U51C U66C,0.08
10,C37U U49C A64G U69C,0.11
11,C37U U51A U72C,0.76
12,C37U U54A A56G,0.24
13,C37U U58C A65G U78C,0.04
14,C37U U58C U74C,0.47
15,C37U U60C U80A,0.13
16,C37U U67C U78C,0.1
17,C37U U69C U78G,0.58
18,C37U U72C U74A,1.18
19,C37U U74C U80C,0.89
20,C38A A45G A56G,0.1
21,C38A A45G A77C,0.08

row,Variant,self-cleavage
1,C38A A56G U58C,0.24
2,C38A A56G U60G,0.39
3,C38A A56G U66C,0.09
4,C38A A64U C79A,0.06
5,C38A A64U U78C,0.06
6,C38A C40A U69G,0.16
7,C38A C50A G55A U67C U80C,0.04
8,C38A G42A U78G,0.18
9,C38A G42U U54C C62A U78C,0.13
10,C38A G63A A64C,0.14
11,C38A U41A U69A A75U,0.06
12,C38A U41C A64G C68G,0.12
13,C38A U41C U72C,0.65
14,C38A U41C U78C,0.16
15,C38A U41G A47G U51C U80C,0.08
16,C38A U43C G46A A47U,0.13
17,C38A U43C U54C A56G A57U,0.09
18,C38A U43G U69C,0.16
19,C38A U48C U78C,0.14
20,C38A U51C A64G,0.3
21,C38A U51C U60C A64G,0.12

row,Variant,self-cleavage
1,C38A U60C U78A,0.4
2,C38A U66C U69C U72A,0.09
3,C38A U69A U80A,0.13
4,C38G A47G U74C A75U,0.11
5,C38G A65G U72C U78C U80A,0.05
6,C38G G42A U69C,0.07
7,C38G G55U U80A,0.08
8,C38G U49A A57G,0.15
9,C38G U51A A56G,0.11
10,C38U A45C A47U U78C,0.06
11,C38U A45G A56G,0.24
12,C38U A45G U54C,0.67
13,C38U A45G U67C A75G U80C C81U,0.04
14,C38U A45G U74C,0.93
15,C38U A45U A56G U80C,0.14
16,C38U A45U G55A U58C C59G,0.14
17,C38U A45U U49C U72C,0.08
18,C38U A56G U72A,0.24
19,C38U A56G U74C U76A,0.47
20,C38U A57G A77U,0.47
21,C38U A57G U58C U67C U69A,0.04

row,Variant,self-cleavage
1,C38U A65G U74C,0.36
2,C38U C40A A45G U66C U69C,0.08
3,C38U C40U A64G U67C,0.11
4,C38U C44A U78C,0.26
5,C38U G46A G63U A77G,0.1
6,C38U U41A A64G U78C,0.07
7,C38U U41C A65G U76A,0.28
8,C38U U41C U49A,0.22
9,C38U U41C U51A,0.88
10,C38U U41C U74C U80C,0.59
11,C38U U41G U72C U80A,0.11
12,C38U U43A A57G U72A,0.23
13,C38U U48G U51C A57G,0.07
14,C38U U54C A56G U80A,0.17
15,C38U U54C U67C U78C,0.08
16,C38U U58A U78C,0.07
17,C38U U60C U69A U78C,0.21
18,C38U U60C U69G,0.3
19,C38U U66C U78G,0.06
20,C38U U67A U76A,0.55
